Drawing on the RNAGym collection of RNA variant scans (doi:10.7554/elife.90254), this text covers self-cleavage for 56 variants.

B1: LINE1-mini (parent)
chain: GGCAGAGCUCAACACAGCGUGGCAAAGUGGCUGUGGCUAGACUGCC

The source gives no read counts; variants with many changes may rest on few reads.

The data set covers variants of B1. Put plainly: self-cleavage, relative activity (ratio to wild type); higher = more cleavage; in vitro, sequencing; the parent is a self-cleaving ribozyme.
With GGCUAAGCUCAACACAGCGUUGCAAAGUGGCUGUGGCUAGACUGCC [A4U G5A G21U], the self-cleavage is 0.05.
The same measure for GGCAGAGCUCAUCACAGGGUGGCAAAGUGGCUGUGGAUAGACUGCC [A12U C18G C37A]: 0.04; for GGCAGAGCUCAACACAGCGUGGCAAUGUGGCUGUGGCAAGACUGCU [A26U U38A C46U]: 0.15.
The same measure for GGCAGAGCUCAACACAGCGUGGCAAAGUGGUUGUGGCCACACUGCC [C31U U38C G40C]: 0.02; for UUCAGAGAUCAAGACAGCGUGGCAAAGUGGCUGUGGCUAGAAUGCC [G1U G2U C8A C13G C42A]: 0.1; for GGCAGAGCUCAAAACAUCGUGGCAAAGUGGCUGUCGCUUGACUGCC [C13A G17U G35C A39U]: 0.09.
The same measure for GGCAGAGCUCAAUACAGCGUGGCAAAGUGGCUCUGGCUGGACUGCC [C13U G33C A39G]: 0.04.
With GGCAGACCUCAACACAGCGUGGCAAAGUGGCUGUGACUAGAGUGAC [G7C G36A C42G C45A], the self-cleavage stood at 0.
In the case of GGCAGAGCUCAACACAGCGUGUCAAAGCGACUGUGCCUAGUCUGCC [G22U U28C G30A G36C A41U] it was 0.18.
The same measure for GGCAGAGCUGAACACAGCGUGGCAAAGCGGCUAUGGCUAGACUGCC [C10G U28C G33A]: 0.06.
The same measure for GGCAGAGCUUAACACAGCGUGUCCAAGUGGCUGUGGCUCGACUGCC [C10U G22U A24C A39C]: 0.16.
For the variant GGCAGAUCUCAAUUCAGCGUGGCAAAGUGGCUGUGGUUAGACUGCC [G7U C13U A14U C37U], the self-cleavage came out at 0.03.
Regarding GGCCGAGCUCAACACAGCGAGGCAAAGUGGCUGCGGCCAGACUGCC [A4C U20A U34C U38C], the self-cleavage stood at 0.01.
Take GGCAGAGCUCGACACAGCGUGGCAAAGUGGCUGUGGUUGGACUGCC [A11G C37U A39G]: the self-cleavage worked out at 0.01.
Turning to GGCAGAGCUCAGCACAGAGUGGCAGAAUGGCUGUGACUAGACUGCC [A12G C18A A25G G27A G36A], the self-cleavage amounted to 0.03.
The same measure for GGCAGUGCUCAACACAGCGAGGCAAAGUGGCUGUAACUAGACUGCC [A6U U20A G35A G36A]: 0.49; for AGCAGAGCUCAACACAGCGUGUCAAAGUGUCUGUGACUAGACUGCC [G1A G22U G30U G36A]: 0.09.
GGCAUAGCUCAACACAGCGUGGCAAAGAGGCUGUGGCUAUACUGCC [G5U U28A G40U]: the self-cleavage stood at 0.08.
In the case of GGCAGAGCUCAACACUGCGUGGCAAACUGGCUGUGCCUAGACUGAC [A16U G27C G36C C45A] it was 0.02; in that of GGCAGAUCUCAACACAGCUGGGCAAUGUAGCUGUGGCUUGACCGCU [G7U G19U U20G A26U G29A A39U U43C C46U], 0.06.
GGCAUAGCUCAACACAGCGUGGCAAAGGGGCUGGUGCUAGACUGCC [G5U U28G U34G G35U]: the self-cleavage worked out at 0.
With AGCAGAGCUCAACACAGCUUGGCAAAGUGGCUGUGGAUCGACUGCC [G1A G19U C37A A39C], the self-cleavage turned out to be 0.03.
In the case of GGCAGAGCUCACCACAGCGUGGCAAAGUGGCUGUGGCUAGACAGCG [A12C U43A C46G] it was 0.01.
As to GGCAGAGCUCAACACAGCGUGGCAGACUGGUUGUUGCUCGACUGCC [A25G G27C C31U G35U A39C], the self-cleavage came to 0.02.
As to GGCAGAGCUCAACACAGCGUGGCAAUGGGGCUAUGGCUAGACUGCC [A26U U28G G33A], the self-cleavage turned out to be 0.07.
The same measure for GGCACAGAUCAACAUAGCAUGGCAAAGUGGCUGUGGCUAGACUGCC [G5C C8A C15U G19A]: 0.43.
In the case of GGCAGAGCUCAUCACAGCGUGGCAUAGUGGCUGCGUCAAGCCUGCC [A12U A25U U34C G36U U38A A41C] it was 0.
For the variant GUCAGGGCUCAACACAGCGCGGCAAAGUGGCUUUGGCUAGACUGCC [G2U A6G U20C G33U], the self-cleavage came out at 0.02.
The same measure for GGCAGAGCUCAACACAGCGUUGCAAAGUGGCUGUGGCAAGAUUGCC [G21U U38A C42U]: 0.07; for GGCAGAGCUCAACGCAGCGUGGCAAAGCGGCUGUGACUAGACUGCC [A14G U28C G36A]: 0.27.
The same measure for GGCAGAGCUCAACACACCGUGGCAACGUGGCUGUGGCUAGACUGCU [G17C A26C C46U]: 0.72.
With GGCAGAGCUAAACACAUCGUUUCAAAGUGGCUGUGUCUAGACUGCC [C10A G17U G21U G22U G36U], the self-cleavage was found to be 0.01.
Regarding GGUAGAGCUAAACACAGCGUGGCAAAGUGGAAGUGGCUAGACUGAC [C3U C10A C31A U32A C45A], the self-cleavage came out at 0.03.
In the case of GGCAGAACUCAAAACAGCGUGGCAAAGUGGCUGGGGCUAGACUGCC [G7A C13A U34G] it was 0.16.
Consider GGGAUAGCUCAAUACAGCGUGGCAAAGUGGCUGUUGCUAGACUUCC [C3G G5U C13U G35U G44U], for which the self-cleavage came out at 0.26.
As to GGCAGAGCUCAACACAGCGUGGCAAAGUGGCUGUAGACAGUCUGCC [G35A C37A U38C A41U], the self-cleavage came to 0.23.
In the case of GGCUGGGCUCAACACAGCGUGGCAAACUGGCCGUGGGUAGACUGCC [A4U A6G G27C U32C C37G] it was 0.06; in that of GGCAGAGCUCAAGACAGCGUGGCUAAGUAGCUGUGGCUAGACUACC [C13G A24U G29A G44A], 0.04; in that of GUCAGGGCUCAACACACCGUGGCAAAGUGGCUGGGGCUAGACUGCC [G2U A6G G17C U34G], 0.03.
The same measure for GACAGAGCUCAACACAGUGUGGCAAAGUGGCUGUGGGUAGACUCCC [G2A C18U C37G G44C]: 0.02; for GGCAGAGCUCAACACAGCGUGGAAAAGUGGCUGCGACUAGACUGCC [C23A U34C G36A]: 0.21; for GGCAGAGCUUAACACAGCUUGGAAAAGUGGCUGUGGUUAGACGGCC [C10U G19U C23A C37U U43G]: 0.
GGCAGAGCUCAUCACAGCGUGCCAAAGUGGCUGAGGCUAGACUGCC [A12U G22C U34A]: the self-cleavage is 0.
In the case of GGCGAUACUGAACACAGCGUGACAAUGUGGCUGUGGCUAGACUGCC [A4G G5A A6U G7A C10G G22A A26U] it was 0.02; in that of GGCAGAGCUCAACACAGCGUGACAAAGUGACUGUGGCUAGAAUGCC [G22A G30A C42A], 0.26.
In the case of GGAUGAGCUCGACACAGCGUGGCAAAGUGGCUGUGGCUAGACUGCU [C3A A4U A11G C46U], the self-cleavage came out at 0.04.
In the case of GGCACAGCUCAGCACAGCGUUGCAAAGUGGCUGUGGCUAGACUGCC [G5C A12G G21U] it was 0.81.
In the case of GGCAGAUCUCAACACAGCGUGUCAAAGUGUCUGUGGCUAGACUGCU [G7U G22U G30U C46U] it was 0.04.
In the case of GGCAGAGCUCAACACAGCGUGGCAAGUUGGCUGUGGCGAGACUGCC [A26G G27U U38G] it was 0.02; in that of CGCAGAGCGCAACACAGCGUGGCAAAGUGGCUGUGGCUAGACUUCC [G1C U9G G44U], 0.01.
On to GGCAGAGCUCAACACAGCGUGAGAAAGUGGCUGUGGCGAGACUGCC [G22A C23G U38G], for which the self-cleavage came out at 0.03.
On to GGGAGAGCUCAACACUGCGUGGCAAAGUGGCUGUGGCUCGACUGCC [C3G A16U A39C], for which the self-cleavage is 0.
In the case of AGCAGAGCUCAUCACAGCCUGGCAAAGUAGAUGUGGCUAGACUGCC [G1A A12U G19C G29A C31A] it was 0.03; in that of GCCAGCGCAGAACACAGCGUGGCAUAGUGGCUGUGGCUAGACUGCC [G2C A6C U9A C10G A25U], 0.02; in that of GGCAGAGCUCAACACAGCCUGGCAAAGGGGCUGUUGCUAGACUGCC [G19C U28G G35U], 0.01.
In the case of GGGAAUGCUCAACACAGCGUGGCAAAGUGGCUGUGGCUAGACAACC [C3G G5A A6U U43A G44A] it was 0.04.
